# Reference: publication PMC4336329 (PLoS ONE, 2015)
# In all, about 310,000 compounds went through this assay and about 14,000 (4.5%) showed an effect of 50% or more. Effects have a minus sign here. The list shows a part of the results.
# Molecular target: human ether-à-go-go-related gene (hERG) potassium channel (human, UniProt Q12809)
# Assay: primary screen, population patch clamp on CHO cells stably expressing hERG
# 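Note: peak tail current of the secondary pulse compared with the same well before compound.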
# human ether-à-go-go-related gene (hERG) potassium channel, sequence (Q12809 whole entry, looked up): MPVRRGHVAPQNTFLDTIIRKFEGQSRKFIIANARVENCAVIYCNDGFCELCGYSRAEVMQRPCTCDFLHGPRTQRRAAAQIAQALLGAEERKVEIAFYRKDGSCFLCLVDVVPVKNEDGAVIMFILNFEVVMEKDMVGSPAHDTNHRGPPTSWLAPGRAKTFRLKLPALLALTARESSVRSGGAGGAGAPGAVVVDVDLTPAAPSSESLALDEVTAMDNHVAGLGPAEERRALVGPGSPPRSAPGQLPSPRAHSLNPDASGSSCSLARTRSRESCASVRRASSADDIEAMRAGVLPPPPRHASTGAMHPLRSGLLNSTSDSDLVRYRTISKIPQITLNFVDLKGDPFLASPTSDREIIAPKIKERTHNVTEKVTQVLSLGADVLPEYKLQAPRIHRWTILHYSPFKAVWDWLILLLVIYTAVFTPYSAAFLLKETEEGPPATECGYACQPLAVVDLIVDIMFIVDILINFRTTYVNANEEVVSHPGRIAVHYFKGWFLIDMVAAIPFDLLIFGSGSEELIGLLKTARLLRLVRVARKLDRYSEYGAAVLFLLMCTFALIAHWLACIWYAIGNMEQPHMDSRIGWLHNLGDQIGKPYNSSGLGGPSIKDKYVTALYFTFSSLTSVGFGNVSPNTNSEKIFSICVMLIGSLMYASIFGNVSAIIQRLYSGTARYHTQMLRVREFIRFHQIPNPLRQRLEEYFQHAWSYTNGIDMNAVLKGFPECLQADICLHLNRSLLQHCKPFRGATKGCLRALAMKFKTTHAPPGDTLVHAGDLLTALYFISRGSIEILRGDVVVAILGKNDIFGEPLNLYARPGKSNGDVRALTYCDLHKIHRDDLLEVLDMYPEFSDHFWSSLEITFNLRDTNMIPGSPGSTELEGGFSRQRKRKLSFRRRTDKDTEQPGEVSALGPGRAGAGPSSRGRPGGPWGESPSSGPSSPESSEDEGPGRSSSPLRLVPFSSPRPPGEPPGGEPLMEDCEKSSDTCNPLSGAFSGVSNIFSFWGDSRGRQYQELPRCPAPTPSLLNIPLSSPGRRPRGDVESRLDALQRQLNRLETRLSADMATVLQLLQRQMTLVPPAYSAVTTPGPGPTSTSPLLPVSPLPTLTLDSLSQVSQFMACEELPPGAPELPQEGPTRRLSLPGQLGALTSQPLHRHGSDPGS
row,Structure (SMILES),"hERG current change (%, negative = inhibition) at 10uM"
1,CC1CCCC(C)N1CCCNC(=O)c1cc2c(=O)n(C)c3ccccc3c2n1C (stereo not drawn),5.79%
2,Cc1cc(C)c(OCC(=O)N/N=C/c2ccc3c(c2)OCO3)c(C)c1,2.47%
3,COC(=O)c1ccc(OS(=O)(=O)N(C)C)cc1,16.3%
4,Cc1nn(CCCC(=O)NCc2ccc(F)cc2)c(=O)c2nccn12,9.12%
5,CC(C)Nc1nnc(Sc2ccc(Cl)cc2[N+](=O)[O-])s1,-14.7%
6,Cc1c(Br)c([N+](=O)[O-])nn1CC(=O)Nc1sc2c(c1C(=O)OC(C)C)CCC(C)C2 (stereo not drawn),17.4%
7,CCn1cc(CCC(=O)NC(C)c2ccccc2)c2ccccc21 (stereo not drawn),4.59%
8,Cc1ncsc1C(=O)O,16.1%
9,O=S(=O)(NCc1ccccn1)c1cc(OCC(F)(F)F)ccc1OCC(F)(F)F,-69.9%
10,CCN(C(=O)CSc1nncs1)c1c(N)n(Cc2ccccc2)c(=O)[nH]c1=O,8.1%
11,COc1cc2[nH]c(=O)n(CCCCCC(=O)NCCCN3CCCC3=O)c(=O)c2cc1OC,7.87%
12,COc1ccc(CCNC(=O)c2cc3c(=O)n4cccc(C)c4nc3n(Cc3ccco3)c2=N)cc1OC,-80.9%
13,COc1cccc(/C=C/C(=O)OCC(=O)c2c[nH]c3ccccc23)c1,13%
14,Cn1ncc2c(=O)n(/N=C/c3ccccc3)cnc21,18.6%
15,O=C(Oc1cccnc1)c1cccc(Cl)c1,6.44%
16,O=C(Nc1ccc2ccccc2c1)c1ccccc1F,21.7%
17,CCC(=O)N1CCc2cc(S(=O)(=O)CCC(=O)Nc3ccc(F)c(F)c3)ccc21,3.97%
18,Cc1cc(C(=O)CN2C(=O)NC(Cc3c[nH]c4ccccc34)C2=O)c(C)n1C (stereo not drawn),2.89%
19,COc1ccccc1C(=O)NCCC(=O)NCC(c1ccccc1)N(C)C (stereo not drawn),-0.288%
20,Cc1c[n+](CC(=O)c2ccccc2)cs1.[Br-],22%
21,CCc1cccc(NC(=O)CCCSc2nc3ccccc3[nH]2)c1,-16.7%
22,O=c1[nH]c2cc3ccccc3cc2nc1C(F)(F)F,19.1%

row,Structure (SMILES),"hERG current change (%, negative = inhibition) at 10uM"
1,CC(N=C1NS(=O)(=O)c2ccccc21)C(=O)Nc1ccc(F)cc1Cl (stereo not drawn),-7.74%
2,CCn1cc(CNCc2cn(-c3ccccc3C)nc2-c2ccc(OC)c(F)c2)cn1,-22%
3,O=C(O)C1CCCN1C(=O)Nc1ccc(Cl)cc1 (stereo not drawn),12.2%
4,CC(NCc1ccccc1)C1COc2ccccc2O1 (stereo not drawn),2.12%
5,CN(C)CCCNCCCNC(=O)c1ccco1.O=C(O)/C=C/C(=O)O,1.47%
6,CCn1c(CNC(=O)c2ccco2)nnc1SCC(=O)Nc1ccc(Br)cc1F,-54.8%
7,O=C(NCCN1CCOCC1)c1cccc(NS(=O)(=O)c2ccc(Br)cc2)c1,-34.3%
8,COCCCn1c(N)c(C(=O)NCCC(C)C)c2nc3ccccc3nc21,-31.7%
9,O=C(Cn1nnc(-c2ccccc2)n1)OCc1csc(-c2ccccc2)n1,-11.3%
10,Cc1c(CC(C)C)nc(N)c(C#N)c1-c1ccccc1,12%
11,C=C1c2c(Cl)ccc(O)c2C(O)=C2C(=O)[C@]3(O)C(O)=C(C(N)=O)C(=O)[C@@H](N(C)C)[C@@H]3[C@@H](O)C12.O=C(O)c1cc(S(=O)(=O)O)ccc1O (stereo partly drawn),12.4%
12,CCC1SC2=NC(C)=C(C(=O)OCCOC)C(c3ccc(C(=O)OC)cc3)N2C1=O (stereo not drawn),-5.89%
13,COC(=O)c1cn(NC(=O)c2cc([N+](=O)[O-])ccc2F)c(=O)c2ccccc12,-2.81%
14,CC(C)NC(=O)c1ccc2c(c1)N(Cc1ccccc1)C(=O)C(C)(C)O2,21.1%
15,Cc1ccc(NC(=O)CSc2ccc3c(c2)OCCO3)c(O)c1,-1.56%
16,COc1ccccc1/C=N/NC(=O)c1cc2c(ccc3ccccc32)o1,19%
17,COc1ccc(S(=O)(=O)N2CCC(C(=O)c3ccc4c(c3)OCCO4)CC2)cc1,-6.76%
18,COc1ccc(S(=O)(=O)n2nc(OC(=O)c3cccs3)cc2NC(=O)c2cccs2)cc1,-7.03%
19,CCCC[C@H]1COCCS(=O)(=O)N1Cc1ccc(F)cc1,-2.39%
20,N#Cc1cccc(NC(=O)CSc2nnc(-c3n[nH]c4ccccc34)o2)c1,16.5%
21,Cc1c(C(=O)Nc2ccc3nc(N4CCOCC4)sc3c2)oc2ccccc12,-8.91%
22,CCC(=O)N1CCc2cc(Br)cc(S(=O)(=O)NC3CCN(Cc4ccccc4)CC3)c21,-25.3%

row,Structure (SMILES),"hERG current change (%, negative = inhibition) at 10uM"
1,CC(C)n1c(SCC(=O)N2CCCCC2)nc2c1c(=O)n(C)c(=O)n2C,15.4%
2,Cc1ccc(C)c(-c2nnc(NC(=O)COc3ccccc3)o2)c1,11.2%
3,COc1cc(NC(=S)N2CCCC(CO)C2)c(OC)cc1Cl (stereo not drawn),8.9%
4,Cc1nnc(SCc2ccccc2F)n1NCc1cccs1,-18.2%
5,O=C(O/N=C1\CCS(=O)(=O)c2sccc21)c1ccccc1,11.6%
6,CCOc1ccccc1-n1c(C)cc(C=O)c1C,11.1%
7,COc1cc2c(cc1OC)C(=S)NC1(CCCC1)C2,9.36%
8,Fc1ccc(CN2CCN3CCCC3C2C2CCCCC2)cc1F (stereo not drawn),-22.1%
9,Oc1ccc(C2Nc3cccc4cccc(c34)N2)c(O)c1,14.9%
10,COC(=O)c1cccc(NC(=O)CN2CCc3ccccc3C2)c1,9.38%
11,CCCn1c2ccccc2c2nnc(SC(CC)C(=O)Nc3cc(C)on3)nc21 (stereo not drawn),6.83%
12,CCOc1ccc(C(=O)CN2C(=O)NC3(CCCCCC3)C2=O)cc1,1.58%
13,NC(=O)c1ccc(NC(=O)CSc2nnc(-c3ccc4c(c3)OCO4)o2)cc1,2.05%
14,O=C(c1cccc(-c2ccc(O)cc2)c1)N1CCN(c2ccc(F)cc2)CC1,23.3%
15,COc1ccccc1NC(=O)N1CCN(c2ccccc2F)CC1,10.7%
16,COc1ccccc1N1CCN(Cc2ccc(Cl)cc2Cl)CC1,-12.7%
17,COc1ccc(NC(=O)COC(=O)Cc2ccccc2[N+](=O)[O-])cc1OC,29.3%
18,COc1ccc(OC(C)C(=O)Nc2cccc(OC)c2)cc1 (stereo not drawn),-0.0503%
19,O=C(CSc1nc2ccccc2o1)Nc1nc(-c2ccccc2)c(-c2ccccc2)s1,14.7%
20,COCCNC(=S)N/N=C/c1ccc([N+](=O)[O-])cc1,12.4%
21,CCOC(=O)c1c(NC(=O)Cn2nnc(-c3ccc(Cl)cc3)n2)sc(C)c1C,6.97%
22,Cc1[nH]n(-c2ccccc2)c(=O)c1C(c1ccc([N+](=O)[O-])cc1)c1c(C)[nH]n(-c2ccccc2)c1=O,15.3%

row,Structure (SMILES),"hERG current change (%, negative = inhibition) at 10uM"
1,COc1ccc(/C=N/N(Cc2ccccc2)c2ccccc2)cc1O,11.7%
2,Cc1ccc(C(=O)N2CCN(c3ccccc3)CC2)cc1C,4.41%
3,CCCCN(C(=O)/C=C/c1ccco1)c1c(N)n(CC(C)C)c(=O)[nH]c1=O,31.1%
4,COC(=O)CC1SC(=O)NC1=Nc1cccc(C)c1 (stereo not drawn),14.4%
5,O.O=C(O)c1cc(=O)c2c(Cl)cc(Cl)cc2[nH]1,-51.9%
6,CCOC(=O)Cn1c(=O)n(Cc2ccco2)c(=O)c2ccc(C(=O)NC3CCCC3)cc21,-18.9%
7,Cc1ccc(-c2nn[nH]n2)cc1,2.07%
8,O=C(c1ccc(COc2ccc(Cl)cc2)cc1)N1CCCCC1,-4.5%
9,O=C(Nc1cc(Cl)ccc1Cl)C1CC(=O)N(c2ccccc2)C1 (stereo not drawn),5.58%
10,Cc1cc(NC(=O)c2cnn3c(C(F)(F)F)cc(-c4ccccc4)nc23)no1,-26.7%
11,O=c1[nH]nc(CNc2cccc(C(F)(F)F)c2)c2ccccc12,-4.15%
12,CN1/C(=C\C(=O)Nc2ccc(F)cc2)C(C)(C)c2ccccc21,8.91%
13,O=C(CCc1nnc(Cc2c[nH]c3ccccc23)o1)NCC1CC12CCCCC2 (stereo not drawn),-8.61%
14,O=C(Nc1cc(S(=O)(=O)N2CCOCC2)ccc1N1CCCC1)C1COc2ccccc2O1 (stereo not drawn),-4.53%
15,Cc1cc(C)n(CCC(=O)N2CCCC(N3CCN(c4cccc(Cl)c4)CC3)C2)n1 (stereo not drawn),-30.9%
16,N#Cc1c(-c2ccccc2Cl)noc1/C=C/Nc1ccc(C(=O)O)cc1,10.2%
17,CCOC(=O)C1=CC[C@H]2c3c(c4ccccc4n3C)C(=O)C1N2C(=O)OC(C)(C)C,-13.2%
18,COc1ccc(N2CCN(c3oc(COc4ccc(Cl)cc4Cl)nc3C#N)CC2)cc1,6.84%
19,O=C(Nc1ccccc1C(=O)N/N=C/c1ccco1)c1ccccc1,-9.23%
20,Cc1cccn2c(=O)nc(SCC(=O)c3ccccc3)nc12,0.0981%
21,COc1cccc(NC(=O)Cn2c(CCC(=O)O)ccc2-c2ccccc2)c1,15.1%
